In PubChem BioAssay AID1508642 (National Center for Advancing Translational Sciences (NCATS), 2021):
In all, about 43,000 compounds went through this assay and about 200 (0.47%) were called active. Inconclusive results (about 12%) are left out. Calls come from the whole dose curve; as a rule, active = well fitted cell-killing curve with a large enough effect; inconclusive = small, poorly fitted or top-dose-only effect, or effect the other way; inactive = flat fitted curve, though single readings scatter. This is one part of the list.

assay: Cell viability qHTS assay in S16 Pmp22-F2sN cells; settings: S16 Pmp22-F2sN Schwann cells (luciferase reporters placed in the Pmp22 gene) viability, CellTiter-Glo, 24 h; series mostly up to 57.5 µM; activity change, negative = cytotoxicity: at the top concentration; note: nearly all actives have a fitted effect of over 65% in size
Method in brief: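 Seed 500-1,000 S16 Pmp22-F2sN cells per well in phenol-red-free DMEM with 10% heat-inactivated FBS; pin-add 23 nL compound; incubate 24 h at 37C; add CellTiter-Glo, wait 15 min protected from light; read luminescence.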
% is set by controls: 0 for no effect and ±100 for the full control effect.

SMILES | activity change, negative = cytotoxicity
c1ccc(N2CCN(Cc3cccn3-c3nnc(N4CCN(C5CCCCC5)CC4)s3)CC2)cc1 | inactive: 15.6%
CCc1ccccc1NS(=O)(=O)c1ccc2c(c1)CCN2C(=O)C1CC1 | inactive: -16.4%
CCc1ccc(-c2nn(CC(=O)NC3CCCCC3)c3c2cnc2ccc(C)cc23)cc1 | inactive: 1.02%
O=C(CN1CCN(Cc2cccc(Cl)c2)C1=O)NCc1ccc(F)cc1 | inactive: 12.6%
CCN(c1ccccc1C)S(=O)(=O)c1ccc(N2CCCCS2(=O)=O)cc1 | inactive: -12.7%
COc1ccc(C2CC(=O)N(Cc3ccc(F)cc3)c3ccccc3S2)cc1OC (centres undefined) | inactive: 3.14%
COc1ccc(OC)c2sc(N3CCN(C(=O)c4ccc5c(c4)CCCC5)CC3)nc12 | inactive: -19.7%
CCC1CCc2nc3sc(C(=O)Nc4ccc(C)cc4)c(N)c3cc2C1 (centres undefined) | inactive: 3.27%
COc1ccccc1C(=O)NCCn1cc(SCc2ccc(C)cc2)c2ccccc21 | inactive: 2.84%
Cc1nn(-c2ccccc2)c(-n2cccc2)c1C(=O)NCCc1ccc(Cl)cc1 | inactive: -1.93%
Cn1c(=O)c2cc(C(=O)NCCCN3CCN(c4cccc(Cl)c4)CC3)sc2c2ccccc21 | inactive: -1.19%
CCOc1ccc(CCNC(=O)c2nn(-c3ccc(OC)c(Cl)c3)c(=O)c3c2c2ccccc2n3C)cc1OCC | inactive: 10.9%
COc1ccc(-c2cc3ccc(O)c(CN4CCC(C)CC4)c3oc2=O)cc1 | inactive: 9.1%
O=C(Nc1ccc2oc(-c3cccnc3)nc2c1)c1ccc(-c2ccccc2OC(F)(F)F)o1 | inactive: 28.4%
COc1ccc(-n2nc(C(=O)Nc3cc(OC)c(OC)c(OC)c3)c(=O)n(C)c2=O)cc1 | inactive: -27.1%
COc1ccc(-n2nc(C(=O)N3CCN(c4ccc(F)cc4)CC3)c3c4ccccc4n(C)c3c2=O)cc1 | inactive: 9.54%
CC1=C(c2ccc(C)cc2)S(=O)(=O)NC1=NCCCN1CCN(c2ccccc2F)CC1 | inactive: -16.1%
Cc1nn(C)c2c1c(C(F)(F)F)cc(=O)n2CC(=O)NCCC(C)C | inactive: 0.0454%
Cc1ccc(CN2CCCn3nc(C(=O)NC(C)C)cc3C2=O)cc1 | inactive: 14.8%
Cc1ccc(N2CCN(S(=O)(=O)c3cc(C(=O)Nc4cc(Cl)cc(Cl)c4)ccc3F)CC2C)cc1 (centres undefined) | inactive: -21.9%
CC(=O)Nc1nonc1-c1nnc(SCC(=O)Nc2cccc(F)c2)n1-c1ccccc1 | inactive: -0.712%
COC(=O)c1scc(-c2ccc(C)cc2)c1S(=O)(=O)Nc1ccc(F)cc1F | inactive: 1.84%
COc1ccc(NC(=O)Cn2c(=O)n(Cc3nc(-c4ccccc4)no3)c(=O)c3cc4c(cc32)OCO4)c(OC)c1 | inactive: -7.68%
O=C(Nc1ccc2oc(-c3cccnc3)nc2c1)c1ccc(Br)cc1 | inactive: 4.44%

SMILES | activity change, negative = cytotoxicity
Cc1nn(CC(=O)NCc2ccc(Cl)cc2)c(=O)c2cc3sccc3n12 | inactive: 12.8%
COc1ccc(Oc2c(C(F)(F)F)oc3c(CN4CCCC(C)C4)c(O)ccc3c2=O)cc1 (centres undefined) | inactive: 5.57%
COc1ccccc1N1CCN(c2ccc(=O)n(CC(=O)NCc3ccc(OC(C)C)cc3)n2)CC1 | inactive: -13.9%
Cc1ccc(NC(=O)Cn2cc3c(n2)CCCC3)c(Cl)c1 | inactive: 1.95%
COc1ccc(C)cc1NC(=O)Cn1c(=O)c(C(F)(F)F)nc2ccccc21 | inactive: 11.9%
CCn1c(C(=O)NCc2ccc(OC(C)C)cc2)cc2oc3ccccc3c21 | inactive: -0.599%
CCOc1ccc(-n2c(SCC(=O)N3CCC(C)CC3)nc3c([nH]c4ccccc43)c2=O)cc1 | inactive: 14.5%
Cc1ccc(C)c(N2CCN(C(=O)c3cc(C)nc4c3c(C)nn4-c3cccc(F)c3)CC2)c1 | inactive: 4.98%
Cc1ccc(C)c(N2CCN(c3ccc4cc(S(=O)(=O)N5CCC(C)CC5)ccc4n3)CC2)c1 | inactive: -3.3%
CCOc1ccc(C(=O)NCCc2sc(-c3ccc(OC)c(OC)c3)nc2C)cc1 | inactive: 1.45%
Cc1ccccc1OCC(=O)Nc1sc2c(c1C(=O)OC(C)C)CCCC2 | inactive: 2.56%
O=C(Nc1cc(Cl)cc(Cl)c1)c1ccc2c(c1)N(Cc1cccc(Cl)c1)C(=O)c1ccccc1S2=O (centres undefined) | inactive: 0.287%
COC(=O)c1ccc(C2c3c(oc4ccccc4c3=O)C(=O)N2c2nc(C)c(C(=O)OC)s2)cc1 (centres undefined) | inactive: 2.15%
COc1ccccc1NC(=O)c1cc(S(=O)(=O)N2CCN(c3ccccc3Cl)CC2)ccc1F | inactive: 0.536%
Cc1nn(CC(=O)O)c(=O)c2cc3cc(F)ccc3n12 | inactive: 1.04%
COc1ccc2c(CNCc3cccs3)c(C(=O)O)n(Cc3ccc(C)cc3)c2c1 | inactive: 5.3%
Cc1cccc(-n2c(=O)c3c(c4cc(C)ccc4n3C)n(CC(=O)NCC3CCCO3)c2=O)c1 (centres undefined) | inactive: -2.06%
CCCOc1ccc(C(=O)Nc2cc3c(cc2N2CCOCC2)n(C)c(=O)n3C)cc1 | inactive: -3.12%
Cc1oc(-c2cccc(Cl)c2)nc1CS(=O)(=O)CC(=O)NCc1ccccc1Cl | inactive: -11.7%
Cc1ccccc1Cn1c2ccccc2c2cnn(CC(=O)NC(C)CCc3ccccc3)c(=O)c21 (centres undefined) | inactive: -9.66%
CCc1ccc2oc(C(=O)Nc3c(C)n(C)n(-c4ccccc4)c3=O)cc(=O)c2c1 | inactive: 0.636%
N#Cc1ccc(C(=O)NCc2ccc3c(c2)CCN3C(=O)c2ccc(F)cc2)cc1 | inactive: -6.54%
CCOC(=O)c1ccc(N2C(=O)c3n[nH]c(C)c3C2c2ccccc2OC)cc1 (centres undefined) | inactive: 5.91%
Cc1cccc(Cn2nc(C)n3c(cc4cc(C)ccc43)c2=O)c1 | inactive: 0.162%

SMILES | activity change, negative = cytotoxicity
COC(=O)c1ccc(NC(=O)CN(CCc2ccccc2)S(=O)(=O)c2ccc(OC)cc2)cc1 | inactive: 5.39%
CCOc1ccccc1NC(=O)N(Cc1ccc(F)cc1)C1CCN(CC)CC1 | inactive: 11%
Cc1ccsc1CN(C(=O)c1oc2ccc(F)cc2c1C)C1CCS(=O)(=O)C1 (centres undefined) | inactive: 1.63%
Cc1ccc(CNC(=O)CC(C)CC2=NS(=O)(=O)c3ccccc3N2)cc1 (centres undefined) | inactive: 2.47%
CCc1ccc(N2CCn3c2nc2c3c(=O)n(C/C=C/c3ccccc3)c(=O)n2C)cc1 | inactive: 0.248%
COc1ccc(NC(=O)c2c(NCc3ccc(N(C)C)cc3)sc3c2CCC3)cc1 | inactive: -3.72%
Cc1ccc(C)c(-n2c3nc(=O)[nH]c(=O)c-3cc3c(C)nn(-c4ccccc4)c32)c1 | inactive: -1.44%
COc1cccc(CNS(=O)(=O)c2cc3[nH]c(=O)c(=O)[nH]c3cc2C)c1 | inactive: 13.8%
Cc1ccc(Nc2ncc(C(=O)N3CCN(c4ccc(F)cc4)CC3)c3ccccc23)cc1Cl | inactive: -7.28%
CCOc1ccc(-c2nonc2NC(=O)c2oc3cc(C)c(C)cc3c2C)cc1OCC | inactive: -10.3%
Cc1ccc(NC(=O)C2CCCN2S(=O)(=O)c2cccc3nsnc23)c(C)c1 (centres undefined) | inactive: -4.47%
CCCCn1c(=O)c2oc3ccccc3c2n(Cc2cccc(F)c2)c1=O | inactive: -3.27%
CCC(C)Cn1c(/C=C/c2ccccc2)nc2ccccc21 (centres undefined) | inactive: -20.8%
O=C(CSc1oc(-c2ccco2)nc1S(=O)(=O)c1ccc(Br)cc1)c1ccccc1 | inactive: -13.3%
CCS(=O)(=O)c1ccc(O)c(Nc2cc(C)nc(SC)n2)c1 | inactive: -20.7%
Cc1ccc(NC2=C(CC(=O)O)C(c3ccc(F)cc3)N(c3ccc(C)cc3)C2=O)cc1 (centres undefined) | inactive: 1.16%
CC(C)c1cnc2c(c1SCC(=O)Nc1ccc(OC(F)(F)F)cc1)c(=O)n(C)c(=O)n2C | inactive: 3.29%
O=C(CCCN1C(=O)c2cccnc2Oc2ccc(Cl)cc21)NCc1ccccc1F | inactive: -9.6%
CCc1nnc2c(Nc3cccc(F)c3)nc3ccc(C(=O)c4ccccc4)cc3n12 | inactive: -17.4%
CCOC(=O)c1cccc(NC(=O)c2cc3c(=O)n(C)c4ccccc4c3n2C)c1 | inactive: 13.2%
Cc1ccc(CNC(=O)CCN2C(=O)COc3ccc(C)cc32)cc1 | inactive: 22%
Cc1ccc(S(=O)(=O)N2CCc3cc(C(=O)Nc4ccc(C(F)(F)F)cc4)ccc32)cc1 | inactive: -4.33%
Cc1oc(-c2ccccc2Cl)nc1CS(=O)CC(=O)NCc1ccc(Cl)cc1 (centres undefined) | inactive: 0.815%
COc1ccc(CCNC(=O)CSc2cn(CCNC(=O)c3cccc(C(F)(F)F)c3)c3ccccc23)cc1OC | inactive: -14.7%

SMILES | activity change, negative = cytotoxicity
CCC1CN(C(=O)Nc2cccc3c2CCCC3)c2cc(Cl)ccc2O1 (centres undefined) | inactive: -13.3%
O=C(Cn1ncc2ccsc2c1=O)N1CCN(c2ccc(F)cc2)CC1 | inactive: 0.358%
Cc1ccc(-n2ncc3c(N4CCC(C(N)=O)CC4)ncnc32)cc1 | inactive: 12.2%
COc1cccc(CNC(=O)C(C)n2ncn3cccc3c2=O)c1OC (centres undefined) | inactive: 5.13%
O=C(Cn1c2ncccc2c(=O)n1-c1ccccc1)NCc1ccccc1Cl | inactive: -0.611%
CCOc1ccc(-c2cn(-c3ccc(C)cc3)c(SCC(=O)Nc3ccc(C)cc3)n2)cc1 | inactive: 5.83%
Cc1ccc(NC(=O)Cc2coc3ccc(C(C)C)cc23)c(C)c1 | inactive: -23.3%
Cc1ccc(COc2ccc(-c3cc(C(F)(F)F)n4nc(C)cc4n3)cc2)cc1 | inactive: -2.35%
Fc1ccc(-c2ccc(CNCCSc3nnnn3-c3ccccc3)o2)cc1 | inactive: 4.61%
O=S(=O)(Nc1nc2ccccc2nc1Nc1ccccc1Br)c1ccccc1 | inactive: 0.243%
O=C(CSc1nc2c([nH]c3ccccc32)c(=O)n1-c1cccc(Cl)c1)NCC1CCCO1 (centres undefined) | inactive: 12.7%
COc1ccc(NC(=O)CCn2c(=O)c3cccn3c3cccnc32)cc1Cl | inactive: 17.8%
O=C(Cn1c(=O)n(CCCS(=O)(=O)C2CCCCC2)c(=O)c2ccccc21)Nc1ccccc1C(F)(F)F | inactive: -3.68%
Cc1ccc(S(=O)(=O)c2[nH]c(-c3ccccc3)nc2SCC(N)=O)cc1 | inactive: 1.05%
CC(C)C(=O)N1c2nc(-c3ccco3)nn2C2(CCCCC2)[C@@H]2CCCC[C@@H]21 | inactive: -0.32%
Cc1oc2c(cc(NS(=O)(=O)c3ccc(C(C)C)cc3)c3ccccc32)c1C(=O)O | inactive: 1.96%
Cc1ccc(CCNc2ncnc3onc(-c4ccc(F)cc4)c23)cc1 | inactive: -1.43%
COc1cccc(CNC(=O)Cn2c(=O)n3nc(-c4cccc(F)c4)nc3c3ccccc32)c1 | inactive: 4.38%
CCOc1ccccc1NC(=O)C(CC)Sc1nc2ncccc2[nH]1 (centres undefined) | inactive: -5.64%
Cc1ccc2oc3c(c(=O)c2c1)C(c1ccccc1F)N(CCCN(C)C)C3=O (centres undefined) | inactive: 4.21%
COc1ccc(CNC(=O)C2=C(C)C(=O)OC23CCCCC3)cc1 | inactive: -1.71%
COc1ccc(-n2ncc3c2ncn2nc(COc4ccc(Cl)cc4)nc32)cc1 | inactive: -16.2%
